In article PMC6919601, “Identification of Plasmodium dipeptidyl aminopeptidase allosteric inhibitors by high throughput screening” (PLoS ONE, 2019):
In all, about 110,000 compounds went through this assay and about 230 (0.21%) showed an effect of 50% or more. This is one part of the list.

What follows are compounds tested against DPAP1 (Plasmodium falciparum, UniProt Q8IIJ9) (assay: primary screen, percent inhibition; read by cleavage of a fluorogenic dipeptide substrate; higher = more effect of the substance).
Chain of DPAP1 (Q8IIJ9 whole entry, looked up): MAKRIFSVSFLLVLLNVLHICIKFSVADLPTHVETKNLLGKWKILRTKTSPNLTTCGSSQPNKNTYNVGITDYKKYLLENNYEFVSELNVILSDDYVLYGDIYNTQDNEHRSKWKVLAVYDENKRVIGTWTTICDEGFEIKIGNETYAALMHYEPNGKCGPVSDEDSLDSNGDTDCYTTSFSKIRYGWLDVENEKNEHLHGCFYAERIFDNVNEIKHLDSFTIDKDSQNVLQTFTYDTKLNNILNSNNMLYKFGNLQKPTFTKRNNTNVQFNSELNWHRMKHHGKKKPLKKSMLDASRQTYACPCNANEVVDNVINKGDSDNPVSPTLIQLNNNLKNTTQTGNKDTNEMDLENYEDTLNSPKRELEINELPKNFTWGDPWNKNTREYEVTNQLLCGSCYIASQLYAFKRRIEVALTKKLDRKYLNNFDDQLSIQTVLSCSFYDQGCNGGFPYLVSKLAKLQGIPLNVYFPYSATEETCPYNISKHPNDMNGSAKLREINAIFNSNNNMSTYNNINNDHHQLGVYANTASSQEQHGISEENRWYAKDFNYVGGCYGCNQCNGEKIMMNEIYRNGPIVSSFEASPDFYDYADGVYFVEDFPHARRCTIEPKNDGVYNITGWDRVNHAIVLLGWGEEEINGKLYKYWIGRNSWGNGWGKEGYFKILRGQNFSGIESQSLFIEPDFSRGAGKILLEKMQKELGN
Parameters: species or system P. falciparum D10 trophozoite lysates; single well
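Note: 30 min substrate incubation versus DMSO and 10 µM JCP410 controls.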

SMILES	% Inhibition @ 10 uM [%]
CCCCSC(CC(=O)O)C(=O)O (centres unmarked)	-1.29
C1=C(c2ccccc2)CCN(c2nc3ccccc3n3cnnc23)C1	20.7
O=C(Nc1ccc(-c2ccccc2)cc1)c1ccncc1	-0.736
FC(F)(F)c1ccc(CN2CCN(Cc3cccnc3)CC2)cc1	-3.13
FC(F)Oc1ccc(C2=CC(c3cccc(Cl)c3)n3ncnc3N2)cc1 (centres unmarked)	-1.62
CCn1c(C(=O)O)cc2oc3ccccc3c21	-3.34
CC(C)CCNC(=O)c1cc(-c2ccncc2)nc2ccc(S(=O)(=O)N3CCC(C)CC3)cc12	2.35
Cc1ccc(Nc2nc(-c3ccc(F)cc3)cs2)cc1C	-5.94
c1ccc2nc3c(nc2c1)c1ccccc1n3CN1CCCCC1	-8.7
CN1CCCN(Cc2coc3ccccc3c2=O)CC1	-1.07
Cn1c(=O)c(C(=O)c2ccc(Cl)cc2)c(O)c2ccccc21	-1.24
CCCO/C(O)=C1\C(C)=NC2=C(C(=O)CC(c3ccccc3OC)C2)C1c1coc2ccccc2c1=O (centres unmarked)	2.09
N#CCNC(=O)C(CC1CCCCC1)C(=O)NCCc1cccs1 (centres unmarked)	-5.21
CCN(C(=O)c1c(OC)cccc1OC)c1ccccc1C	4.06
O=C(c1ccccc1)C1(C(=O)c2ccccc2)CCCC1	-0.261
Cc1cccc(Cn2c(C)c(C)c3cc(C(=O)NCCN4CCOCC4)ccc32)c1	-1.19
Cc1cc(NC(=O)CCN2CCN(c3ccc(Cl)cc3)CC2)no1	-1.92
CCOc1ccc(-n2cc(-c3ccccc3)c3c(N4CCOCC4)ncnc32)cc1	4.46
C=CCOc1ccc(C2c3c(oc4cc(C)c(C)cc4c3=O)C(=O)N2CCOC)cc1OC (centres unmarked)	-2.91
C=CCNC(=O)CN(Cc1ccccc1)S(=O)(=O)c1ccc(Cl)cc1	3.17
Cc1c(C(=O)NCCc2ccsc2)sc2nc3n(c(=O)c12)CCCCC3	-1.97
CCCC(NC(=O)CCc1c(C)nc2c(c1C)c(=O)n(C)c(=O)n2C)c1cccs1 (centres unmarked)	1.91
O=C(Nc1nncs1)C(Cc1ccccc1)N1C(=O)C2C3C=CC(C3)C2C1=O (centres unmarked)	5.81
N=C(Cc1cccs1)NOC(=O)C12CC3CC(CC(C3)C1)C2	3.72
C=CCNC(=O)c1cc2c(=O)n3cc(C)ccc3nc2n(CCCOCC)c1=N	-1.47
Cc1ccc(S(=O)(=O)Nc2ccccc2OC(F)(F)C(F)C(F)(F)F)cc1 (centres unmarked)	-4.61

SMILES	% Inhibition @ 10 uM [%]
O=C(COc1ccc(/C=c2/sc3n(c2=O)CCN=3)cc1)Nc1ccccc1Cl	-2.8
CC(C)Cn1c(=O)c2sccc2n2c(CCCC(=O)NCc3ccc4c(c3)OCO4)nnc12	-0.759
COCC(=O)NCCc1nc(-c2ccccc2)cs1	2.17
Fc1ccccc1Oc1nc(N2CCOCC2)nc(N2CCOCC2)n1	2.99
O=C(Nc1ccc(Cl)c2c1C(=O)c1ccccc1C2=O)c1ccc([N+](=O)[O-])cc1Cl	0.98
Clc1nc(NCc2ccccc2)nc(N2CCCCC2)n1	-0.856
N=C(NOC(=O)COc1ccccc1)c1cccnc1	-5.08
Cc1cc2oc(C(=O)N(Cc3ccccc3)c3ccccn3)cc(=O)c2cc1C	-1.47
CCN(CC)c1nc(Nc2ccc(OC)cc2)nc(Nc2ccc(OC)cc2)n1	-4.35
O=C1CC(C(F)(F)C(F)F)=Nc2ccccc2N1	4.12
O=C1NCCc2c1[nH]c1ccc(C#Cc3ccccc3)cc21	1.54
CNC(=O)CCc1nc(-c2ccccc2C)no1	0.366
O=C(CCCN1C(=O)c2ccccc2C1=O)Nc1ccccc1	-1.76
Cc1cccc(N/C=C2/C(=O)NC(=O)N(c3cccc(Cl)c3)C2=O)c1	-2.8
O=C(NCCN1CCN(C(=O)c2ccco2)CC1)C(=O)NCc1ccccc1	5.52
CCOc1ccccc1NS(=O)(=O)c1ccc(OC)c(Cl)c1Cl	4.61
CN(C)CCCN(CCCN(C)C)Cc1ccccc1[N+](=O)[O-]	3.24
Cc1nnc2sc(NC(=O)c3ccc(OCC(C)C)cc3)nn12	3.33
CCCCCC(=O)Nc1nnc(Cc2ccc(OC)c(OC)c2)s1	0.997
O=c1oc2ccc3ccccc3c2cc1-c1nc(-c2cccs2)no1	1.35
CCc1ccc(S(=O)(=O)c2nnn3c2nc(NCC2CCCO2)c2cc(Cl)ccc23)cc1 (centres unmarked)	-3.08
CCOc1ccccc1/C=C1/NC(=O)N(Cc2ccc(F)cc2)C1=O	-1.44
Clc1ccccc1CN1CCc2c([nH]c3ccccc23)C1	-1.77
COc1ccc2c(Cl)c(C(=O)O)sc2c1	3
Cc1ccc(Oc2cc(-n3nc(C)cc3C)ncn2)cc1	1.57
C#CCOC(=O)CNS(=O)(=O)c1c(C)cc(C)cc1C	2.86

SMILES	% Inhibition @ 10 uM [%]
Cc1cccc(-c2[nH]c3c(C#N)cnn3c2NC2CCC(C)CC2)c1 (centres unmarked)	5.39
CC1=CC2=NCC(O)CN2C=C1 (centres unmarked)	3.54
Cc1cccn2c(=O)c(/C=C(\C#N)C(=O)NC3CCCC3)c(Oc3ccc(C(C)(C)C)cc3)nc12	0.101
NC(=O)C1(N2CCCCC2)CCN(c2ncnc3[nH]cnc23)CC1	-3.24
N#Cc1cnn2c(C(F)(F)F)cc(-c3ccc(Cl)cc3)nc12	-4.67
CCOC(=O)c1c(C)[nH]c(C)c1S(=O)(=O)N1CCCC(C(=O)N2CCCC2)C1 (centres unmarked)	0.706
Cc1ccc(C(=O)CSc2ncnc3ccccc23)o1	-2.28
O=C(CCCn1sc2ccccc2c1=O)NC1CCCc2ccccc21 (centres unmarked)	-8.56
COCCCN1COc2ccc3c(-c4ccccc4)cc(=O)oc3c2C1	-3.36
Cc1ccc(CCNC(=O)CSCc2nc(-c3ccccc3C)oc2C)cc1	-2.85
Cc1ccccc1NC(=O)c1ccc2c(c1)OCO2	4.53
Cc1ccc(-n2nc(C)c(/C=N/c3ccc(Br)cn3)c2O)cc1C	1.76
Cc1cc(CN2CCN(Cc3ccc4c(c3)OCO4)CC2)cs1	2.57
CSC1=C(C#N)C(c2ccc(OCc3ccccc3)cc2)CC(=O)N1 (centres unmarked)	-2.35
CC(C)NC(=O)C(=O)Nc1ccc(Cl)c(Cl)c1	-3.5
CS/C(=C\C(=O)c1cccs1)CC(=O)c1cccs1	-2.98
N#Cc1ccccc1NC(=O)CSc1nc2ccccc2[nH]1	9.94
Cc1coc2cc3oc(=O)c(CCC(=O)NCc4ccc(F)cc4)c(C)c3cc12	-0.808
CC(C)C(NC(=O)c1ccc(C23CC4CC(CC(C4)C2)C3)cc1)C(=O)NCCCN1CCOCC1 (centres unmarked)	0.505
CCOC(=O)c1c(C)c(C(=O)OCC)n(C)c1C	-2.47
CCOc1ccc(Cn2c(-c3nonc3NC(C)=O)nc3ccccc32)cc1OCC	-1.52
O=C(Cc1ccccc1)NCn1nnc(-c2cccnc2)n1	-0.403
COc1ccc(-c2onc(C)c2C)cc1S(=O)(=O)NCCc1cccs1	-11.4
COc1ccc(CO/C(O)=C2\C(C)=NC3=C(C(=O)CC(C)(C)C3)C2c2coc3ccccc3c2=O)cc1 (centres unmarked)	6.12
Cc1ccc(NC2=NS(=O)(=O)c3ccccc32)cc1	2.76
Clc1ccc(C2=CC(c3ccccc3Cl)n3ncnc3N2)cc1 (centres unmarked)	0.131

SMILES	% Inhibition @ 10 uM [%]
CC(=O)C1=NN(c2ccccc2)C(c2ccc3c(c2)OCO3)N1c1ccc(N2CCOCC2)cc1 (centres unmarked)	-5.46
CC1CCN(S(=O)(=O)c2cccc3ccccc23)CC1	-3.74
NC(=O)CNC(=O)C1(NC(=O)c2ccc(-c3ccc(S(=O)(=O)N4CCNCC4)s3)cc2)CCCCC1	-6.46
O=C(CC1(O)C(=O)Nc2ccccc21)c1ccccc1 (centres unmarked)	2.76
COc1ccccc1S(=O)Cc1ccc(C(=O)O)o1 (centres unmarked)	4.61
C=C(C)[C@@H]1CC=C(CN2CCN(c3ccccn3)CC2)CC1	-5.42
O=C1NC2CCCCC2NC1CC(=O)N1CCN(C(c2ccccc2)c2ccccc2)CC1 (centres unmarked)	0.627
CCC(Sc1ncccc1Nc1ccccn1)C(=O)O (centres unmarked)	-2.45
O=C(CCCOc1ccc(Cl)cc1Cl)N(C1CCCCC1)C1CCCCC1	2.47
CC(C)(C)c1ccc(OCc2nnc(S)n2N)cc1	2.7
COc1ccc(CNc2ncnc3c2cnn3-c2ccc(C)cc2C)cc1	-2.49
CCCN(CCC)C(=O)CS(=O)Cc1nc(-c2ccccc2)oc1C (centres unmarked)	-1.89
CC1(C)CC(=O)C(=Cc2cn(-c3ccccc3)nc2-c2cccs2)C(=O)C1	-1.93
C=CCn1c(SCc2ccc(C(=O)OC)cc2)nc2ccccc2c1=O	2.55
COc1cc(C(=O)Nc2cccc(-c3cn4ccc(C)cc4n3)c2)cc(OC)c1OC	3.21
NC(=O)C1(N2CCCCC2)CCN(S(=O)(=O)Cc2ccccc2)CC1	-4.19
CC(=O)Nc1ccc(Oc2nc(C)nc3sc4c(c23)CCCC4)cc1	-0.511
CC(CNC(=O)Cn1cc2c(n1)CCCC2)c1ccccc1 (centres unmarked)	-1.58
Cc1cccc(OCCCN2CCOCC2)c1	-2.28
O=C(c1cnn2c(C(F)(F)F)cc(-c3ccc4c(c3)OCO4)nc12)N1CCOCC1	3.32
COc1ccc(C(=O)CCC(=O)NC2=NCCS2)cc1	-3.21
CCN(Cc1ccccc1)S(=O)(=O)Cc1ccccc1Cl	-0.834
CC(C)CN(CC(C)C)C(=O)c1cc(-c2ccc(Cl)cc2)[nH]n1	3.64
